{"source": "the supplement of paper PMC9446081", "note": "The campaign covered roughly 39,000 compounds. About 220 (0.56%) showed activity. Some of the results follow.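 Further: static incubation at 37 °C against the wild-type strain, values averaged over two biological replicates.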", "data": [{"system": "Escherichia coli K-12 BW25113", "experiment": "relative growth (OD600 normalised to plate interquartile mean) (fraction); higher = less growth inhibition, active = 0.2 or less", "details": "50 µM; LB; incubation time: overnight (16-24 h)", "values": [{"smiles": "C[C@H]1CN([C@@H](C)CO)C(=O)c2cc(NS(=O)(=O)c3ccc(F)cc3)ccc2O[C@H]1CN(C)Cc1ccc(Cl)c(Cl)c1", "relative growth": "inactive: 0.509"}, {"smiles": "COc1ccc(S(=O)(=O)Nc2ccc3c(c2)C(=O)N([C@H](C)CO)C[C@@H](C)[C@H](CN(C)C(=O)Nc2cccc4ccccc24)O3)cc1", "relative growth": "inactive: 0.892"}, {"smiles": "CC(=O)OC[C@H](N)C(=O)O", "relative growth": "inactive: 1.04"}, {"smiles": "C[C@@H]1CN([C@H](C)CO)C(=O)CCCn2nncc2CO[C@H]1CN(C)S(=O)(=O)c1ccc(C#N)cc1", "relative growth": "inactive: 1"}, {"smiles": "C=CCC[C@@H](Cc1ccc(F)cc1)C(=O)O[C@H](CNC(=O)[C@@H](CC=C)CC(=O)N(CCO)Cc1ccccc1)c1ccccc1", "relative growth": "inactive: 1.11"}, {"smiles": "C[C@@H]1CN([C@H](C)CO)C(=O)c2cc(NS(=O)(=O)c3cccs3)ccc2O[C@@H](C)CCCCO[C@@H]1CN(C)S(C)(=O)=O", "relative growth": "inactive: 1.05"}, {"smiles": "COc1ccc(S(=O)(=O)Nc2ccc3c(c2)C(=O)N([C@H](C)CO)C[C@H](C)[C@H](CN(C)Cc2ccc(C(=O)O)cc2)OCCCC[C@@H](C)O3)cc1", "relative growth": "inactive: 0.978"}, {"smiles": "Cc1ncc(NC(=O)c2ccc(CN3CCN(C)CC3)c(C(F)(F)F)c2)cc1Nc1nccc(-c2cccnc2)n1", "relative growth": "inactive: 0.954"}, {"smiles": "COc1ccc2c3c([nH]c2c1)[C@@H](CO)N(C[C@]13CCN(CC1)CC1CCCC1)S(=O)(=O)c1cn(cn1)C", "relative growth": "inactive: 1.01"}, {"smiles": "Cc1ccc(S(=O)(=O)Nc2ccc3c(c2)C(=O)N([C@H](C)CO)C[C@@H](C)[C@H](CN(C)C(=O)Nc2cccc4ccccc24)OCCCC[C@H](C)O3)cc1", "relative growth": "inactive: 1.04"}, {"smiles": "C=CCNC(N)=S", "relative growth": "inactive: 0.947"}, {"smiles": "C[C@H]1CN([C@@H](C)CO)C(=O)Cc2cc(NC(=O)C3CC3)ccc2O[C@H]1CN(C)C(=O)Nc1ccc2c(c1)OCO2", "relative growth": "inactive: 0.996"}, {"smiles": "C[C@@H]1CCCCO[C@@H](CN(C)S(=O)(=O)c2cn(C)cn2)[C@@H](C)CN([C@@H](C)CO)C(=O)c2cc(NS(=O)(=O)c3cn(C)cn3)ccc2O1", "relative growth": "inactive: 1"}, {"smiles": "FC(F)(F)c1ccccc1-c1ncc(-c2ccccc2)o1", "relative growth": "inactive: 0.995"}, {"smiles": "O=C(C[C@@H]1C[C@@H]2c3cc(NC(=O)c4ccc5c(c4)OCO5)ccc3O[C@@H]2[C@H](CO)O1)NCC(F)(F)F", "relative growth": "inactive: 0.955"}, {"smiles": "C[C@H](CO)N1C[C@H](C)[C@H](CN(C)CC2CCCCC2)OCCCC[C@H](C)Oc2ccc(NS(=O)(=O)c3ccccc3)cc2C1=O", "relative growth": "inactive: 0.975"}, {"smiles": "C1CN(C2CCOCC2)CCN1", "relative growth": "inactive: 1.03"}, {"smiles": "C[C@H](CO)N1C[C@H](C)[C@H](CN(C)C(=O)Nc2cccc3ccccc23)Oc2ccc(NC(=O)Nc3ccc4c(c3)OCO4)cc2CC1=O", "relative growth": "inactive: 0.97"}, {"smiles": "C[C@H]1CN([C@@H](C)CO)C(=O)c2cc(NC(=O)Cn3cnnn3)ccc2O[C@H]1CN(C)Cc1ccc(C(=O)O)cc1", "relative growth": "inactive: 1"}, {"smiles": "NC(=O)N1Cc2nccn2C[C@H](Cn2ncccc2=O)C1", "relative growth": "inactive: 0.969"}, {"smiles": "C[N+](C)(C)CCO", "relative growth": "inactive: 1.03"}, {"smiles": "CO[C@H]1O[C@H](CO)[C@@H](OC(=O)Nc2ccc(Br)cc2)[C@@H]2OC(=O)[C@H](Cc3cccc(Br)c3)C/C=C/C[C@@H](Cc3cccc(Br)c3)C(=O)O[C@@H]12", "relative growth": "inactive: 1.03"}, {"smiles": "Cc1noc(C)c1S(=O)(=O)Nc1ccc2c(c1)CC(=O)N([C@H](C)CO)C[C@@H](C)[C@H](CN(C)C(=O)Nc1ccccc1)O2", "relative growth": "inactive: 1.01"}, {"smiles": "CC(C)NC(=O)N(C)C[C@@H]1Oc2c(NS(=O)(=O)c3cccs3)cccc2C(=O)N([C@@H](C)CO)C[C@H]1C", "relative growth": "inactive: 0.981"}, {"smiles": "CN(C)Cc1cn(CC[C@@H]2CC[C@H](N)[C@@H](CO)O2)nn1", "relative growth": "inactive: 0.996"}, {"smiles": "C[C@@H]1CCCCO[C@H](CN(C)C(=O)C2CCCCC2)[C@H](C)CN([C@H](C)CO)C(=O)c2cc(NC(=O)C3CCCCC3)ccc2O1", "relative growth": "inactive: 1.02"}, {"smiles": "COc1ccc(C#Cc2ccc3c(c2)O[C@@H](CN(C)C(=O)c2ccccn2)[C@H](C)CN([C@@H](C)CO)S3(=O)=O)cc1", "relative growth": "inactive: 1.04"}, {"smiles": "O=C(CCCCCNC(=O)OCc1ccc([C@H]2[C@H](C(=O)NCc3ccccc3)c3ccccc3C(=O)N2Cc2ccccc2)cc1)NO", "relative growth": "inactive: 1.02"}, {"smiles": "CC[C@@H](C)[C@H]1NC(=O)NC1=O", "relative growth": "inactive: 0.938"}, {"smiles": "C[C@H](CO)N1C[C@H](C)[C@@H](CN(C)Cc2ccncc2)Oc2ccc(NC(=O)Cn3cnnn3)cc2C1=O", "relative growth": "inactive: 1.02"}, {"smiles": "C[C@@H]1CN([C@H](C)CO)S(=O)(=O)c2ccc(C#Cc3cccc(F)c3)cc2O[C@@H]1CN(C)C(=O)CN1CCOCC1", "relative growth": "inactive: 1.01"}, {"smiles": "C[C@H](O)C#Cc1ccc2c(c1)O[C@H](CN(C)C(=O)C1CCCCC1)[C@H](C)CN([C@H](C)CO)S2(=O)=O", "relative growth": "inactive: 0.985"}, {"smiles": "O=C(C[C@H]1CC[C@H]2[C@@H](COC[C@@H](O)CN2C(=O)C2CC2)O1)NCc1ccncc1", "relative growth": "inactive: 0.963"}, {"smiles": "Cc1cccc(NC(=O)Nc2ccc3c(c2)C(=O)N(C)[C@H]2CC[C@H](CC(=O)NCc4ccccc4Cl)O[C@H]2CO3)c1", "relative growth": "inactive: 1.01"}, {"smiles": "Cc1noc(C)c1NC(=O)Nc1ccc2c(c1)C(=O)N([C@H](C)CO)C[C@@H](C)[C@H](CN(C)S(=O)(=O)c1ccc(F)cc1)OCCCC[C@H](C)O2", "relative growth": "inactive: 1.01"}, {"smiles": "C[C@H]1CN([C@@H](C)CO)C(=O)c2cc(NC(=O)Cc3cn(C)c4ccccc34)ccc2O[C@H]1CN(C)Cc1ccc(C(F)(F)F)cc1", "relative growth": "inactive: 1.04"}, {"smiles": "CC1=C(C#N)C(=O)NC(=O)C1=NNc1ccc(S(N)(=O)=O)cc1", "relative growth": "inactive: 0.987"}, {"smiles": "C[C@H]1CN([C@@H](C)CO)C(=O)c2cc(NC(=O)Nc3ccccc3)ccc2O[C@@H]1CN(C)Cc1ccc(C(F)(F)F)cc1", "relative growth": "inactive: 0.985"}, {"smiles": "C[C@@H]1CN([C@H](C)CO)S(=O)(=O)c2ccc(C#Cc3ccc(F)cc3)cc2O[C@H]1CN(C)S(=O)(=O)c1ccc(F)cc1", "relative growth": "inactive: 1.04"}, {"smiles": "C[C@@H]1CN([C@@H](C)CO)C(=O)c2cc(NS(=O)(=O)c3ccc(Cl)cc3)ccc2O[C@@H](C)CCCCO[C@@H]1CN(C)C(=O)Nc1ccc2c(c1)OCO2", "relative growth": "inactive: 1.01"}]}]}
